The whole screen tested about 420,000 compounds, of which about 64,000 (15%) were called active. The shares of active, inactive and inconclusive entries below differ from those in the screen. The call rests on the fitted dose curve; in most records, active means well fitted inhibition curve with a large enough effect; inconclusive means small, poorly fitted or top-dose-only effect; inactive means flat fitted curve, though single readings scatter. No potency is given beside an inconclusive call; the fits are too rough.
Assay: qHTS for Inhibitors of human tyrosyl-DNA phosphodiesterase 1 (TDP1): qHTS in cells in absence of CPT; further: nearly all actives have a fitted effect of over 55% in size
Details: DT40 Tdp1-/- hTDP1 cells, no CPT, ATP luminescence, 48 h; activity change, negative = growth inhibition: at 46.2 µM (top of the series) unless noted
Outline: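 Chicken DT40 Tdp1-/- cells complemented with human TDP1, screened without camptothecin (DMSO vehicle only), 400 cells/well. Compounds pin-transferred, cells incubated at 37 °C for at least 48 hr. Growth read as ATP-dependent luminescence (CellTiter-Glo, 30 min at RT).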
On the % scale 0 is the no-effect control and ±100 the full control effect; potency means the concentration at half of the fitted maximal effect; tags describe the fitted curve by direction and shape.

Row | SMILES | Potency | activity change, negative = growth inhibition
1 | COc1n[nH]c(C(=O)Nc2cc(F)ccc2C)c1[N+](=O)[O-] | inconclusive [inhibitor, partial curve, poor fit] | 
2 | CCOC(=O)N1CCC(NC(=O)CS(=O)(=O)Cc2nc(-c3ccc(C)cc3)oc2C)CC1 | inconclusive [inhibitor, single point] | 
3 | CCOC(=O)N1CCN(C(=O)c2ccc(-n3c(=S)[nH]c4ccccc4c3=O)cc2)CC1 | inconclusive [inhibitor, partial curve, poor fit] | 
4 | Cc1csc(NC(=O)c2cc3c(s2)CCCC3)n1 | active: 11.6 µM | 
5 | FC(F)(F)c1cc(CN2CCCC3(CCNCC3)C2)cc(C(F)(F)F)c1 | active: 18.4 µM | 
6 | Cc1ccccc1C(=O)NC(=S)Nc1ccc(N2CCN(C(=O)c3ccccc3)CC2)cc1 | active: 10.3 µM | 
7 | Cc1cc(C)n2cc(CSc3nnnn3-c3ccccc3)nc2n1 | inactive | 
8 | COc1ccc(S(=O)(=O)Nc2ccc(Cl)cn2)c(C)c1C | inactive | 
9 | Cc1ccsc1C(=O)N1CCN(S(=O)(=O)c2cccc(F)c2)CC1 | inactive | 
10 | COc1cc(C(C)=O)ccc1OCC(=O)Nc1ccc(C)c(S(=O)(=O)N2CCCCCC2)c1 | active: 16.4 µM | 
11 | O=S(=O)(Nc1ccc(Cl)cn1)c1cnc(Cl)c(Br)c1 | inconclusive [inhibitor, partial curve] | 
12 | COc1cccc(-c2cnc3c(NC=O)cc(-c4cc(OC)c(OC)c(OC)c4)cn23)c1 | inconclusive [inhibitor, single point] | 
13 | CCN(CCNC(=O)C1CCN(c2nnc(-n3cccc3)s2)CC1)c1ccccc1 |  | inconclusive: -33.1% [inhibitor]
14 | COCCn1c(=O)[nH]c2cc(C(=O)NCc3ccccc3Cl)ccc2c1=O | inconclusive [inhibitor, single point] | 
15 | O=C(Nc1ccncc1)c1ccc(-c2ccccc2)cc1 | active: 2.91 µM | 
16 | CCOc1ccc(NC(=O)c2c(Nc3ccc(OC)cc3OC)sc(C(=O)c3ccc(Cl)cc3)c2N)cc1 | active: 13 µM | 
17 | COc1cccc(CN(C(=O)Cn2nnc(-c3ccccc3F)n2)C(C(=O)NC(C)(C)C)c2ccncc2)c1 (centres undefined) |  | inconclusive: -30.1% [inhibitor]
18 | Cn1c(O)c(N=NC(=O)Cc2c[nH]c3ccccc23)c2ccccc21 | inconclusive [inhibitor, partial curve] | 
19 | COc1ccc(C(C(=O)NCC2CCCO2)N(C(=O)c2snc(C(N)=O)c2N)c2ccccc2C)cc1OC (centres undefined) | inconclusive [inhibitor, partial curve] | 

From PubChem BioAssay AID686978 (National Center for Advancing Translational Sciences (NCATS), 2013)
